Reference: a collection of fitness landscapes (doi:10.1016/j.celrep.2020.107928)
Whole data set: some 81,000 sequences, median “one-hybrid fitness for binding parS DNA” near -0.17, cut for the highest 2% near 0.51. This is one part of the list.

B1: Caulobacter ParB omega fusion; a variant is named by its letters at X, in order, B8GW30 (parent)
chain: MESVVVGEPGMSEGRRGLGRGLSALLGEVDAAPAQAPGEQLGGSREAPIEILQRNPDQPRRTFREEDLEDLSNSIREKGVLQPILVRPSPDTAGEYQIVAGERAWRAAQRAGLKTVPIMVRELDDLAVLEIGIIENVQRADLNVLEEALSYKVLMEKFERTQENIAQTIGKSXSHVANXMRLLXLPDEVQSYLVSGELTAXHARAIAAAADPVALAKQIIEGGLSVRETEALARKAPNLSAGKSKGGRPPRVKDTDTQALESDLSSVLGLDVSIDHRGSTGTLTITYATLEQLDDLCNRLTRGI

Variants of: B1
Assay: one-hybrid fitness for binding parS DNA (scaled: cognate 1, non-cognate 0); higher = stronger binding
Details: with parS DNA site
Outline: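 The reporter was HIS3, with the binding site 19 bp from the promoter, in E. coli USO used for bacterial one-hybrid selection of Caulobacter ParB libraries with four specificity codons randomised. Growth was on M9 lacking histidine, with 0.1 mM IPTG and 5 mM 3-AT, for 48 hours at 37°C. Illumina sequencing covered plasmids before and after selection; three replicate libraries were pooled and variants with under 10 reads dropped. A fitness score is the log change in variant-to-wild-type read ratio, rescaled to the cognate and non-cognate references.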

one-hybrid fitness for binding parS DNA, 0.316:
RHIA

one-hybrid fitness for binding parS DNA, ≤ 0.2:
QDSM
AQQG
RNWL
ECNM
LVRD
SEQS
NTDV
YKRS
TIVS
EVVS
EDYR
SLAG
WGAS
GVHK
QSAL
PARH
QDLM
PNQT
NLTM
RRVL
SERT
PCLI
AVPC
KWLI
SNRD
GQWI
TKTM
LADT
SLLC
FNGR
WNTC
AALR
NHWY
GCGT
ALMC
AGQG
LVVA
VAHA
CPGG
FLQR
TVIC
NYYR
TASC
GYAR
GQPT
VETC
DAWT
GGVH
PDTY
PRLV
CAPT
PIAS
VAPT
SHWH
RGYV
QCHC
PFSV
TERG
ASVR
RLDH
SSGL
YFLS
LSPM
VCND
TFMS
SVKA
FWGY
YMCE
ATPI
ITKN
PAVQ
FAAF
IRGI
SRWT
WRVF
SRHW
NAEF
HIMG
QNKD
PEGP
PLYM
TKKS
ICKR
CGDR
FPKC
MIGS
SKLI
SQYC
PACC
KKSR
HRMY
LCAD
NFQS
ERTY
QVSS
AILR
MKLE
CHEA
LCPQ
FRTV
CVCC
GVRG
PLCN
VGPG
VQQR
WNNS
LRED
IKIT
WDDG
QATS
DITV
LGQG
GRCA
DFLG
TGLV
RTAV
ASVE
QRDC
MTLD
YPII
ALAD
HCKF
KCIC
LEKY
KYLF
REDA
NKAN
WDSL
VVIR
LRRH
GPYL
TRPV
DGIV
QWMC
MYMC
EYNR
DWCS
GMQS
WSGR
FEYC
YPSL
CLSI
HQPL
CSAS
AMAV
NQAD
DFKD
SRAT
THCT
PLVM
NDKA
YKQM
SHTM
TDHK
RWYE
TNMY
EFVR
ACWR
RVED
NYTV
AVDC
PACF
QNPC
IADC
TDRG
VYRF
KRDR
RYQL
AQAT
VVLL
HADW
AARL
PLCC
MRGT
EPIM
CLKR
KTGF
LNSS
LNGF
QKPD
AQVL
EWMG
PDNK
PCTD
IFNV
THFN
GKKG
PFRE
PSYP
LSNF
SYEK
GDRN
YAER
IIMG
YYWL
CRYF
QPDG
KCEV
FSMT
SSSY
PNVR
EFLS
EGVS
VMGW
SNLN
MSIC
KQHW
STGN
CCSV
KKAS
RPMF
IFLH
QLKC
CAHI
FQHR
SWML
QQAA
GSIK
YKTQ
QQSS
HTQR
QIDN
DCRV
TKEL
YEAM
PELA
LLCY
ALNC
AHIG
NNPS
PMKG
HDLQ
RVSL
AQSY
PQPN
INAR
YPTV
PEKG
SAAG
IMKC
TYRY
VVSE
QVMG
IGPV
RTGD
AVTR
CHIS
CQPT
RWPE
RAPF
SSAR
VGFS
NSDP
CSYW
PHNG
LCVR
LDPT
YVGL
TQQL
LWPS
RRHD
NIQI
DDTI
HKDT
LESH
LVCA
HWAD
WNLN
YKNR
EAHR
KRVS
GRKY
GQGG
QHMK
WINT
LAFL
TVEY
DNQT
ANCR
RNIR
RGEL
FLTV
NDQG
EGDG
TPTA
QEPS
WVQT
QAGW
TQDT
IGAI
GHYR
TARS
FGKT
TEIL
LGPL
MIQN
ALRC

one-hybrid fitness for binding parS DNA, 0.704:
RRNG

one-hybrid fitness for binding parS DNA, 0.311:
FDRD

one-hybrid fitness for binding parS DNA, 0.229:
RLDF

one-hybrid fitness for binding parS DNA, 0.266:
RHHM

one-hybrid fitness for binding parS DNA, 0.414:
RTEY

one-hybrid fitness for binding parS DNA, 0.445:
RAYN

one-hybrid fitness for binding parS DNA, 0.91:
RTST

one-hybrid fitness for binding parS DNA, 0.304:
ACNA
